Source: PubChem BioAssay AID1768 (National Center for Advancing Translational Sciences (NCATS), 2009)
Screen size: about 270,000 compounds; about 620 (0.23%) were called active. Inconclusive means that the source gave no clear call. Such entries were picked first, then a sample of the others. Calls follow the shape of the dose curve; as a rule, active = well fitted inhibition curve with a large enough effect in the polarisation, with a control signal flat (not every such curve was filed as active); inconclusive = small, poorly fitted or top-dose-only effect, or effect the other way, or a change in a side signal; inactive = no such curve, though single readings can be large or run the other way; the % refers to the polarisation. Where the call is inconclusive, the potency comes from a doubtful curve fit. A note “side channel” means that the fit belongs to a control or component signal, not to the main read-out.

These compounds were tested against Menin (Homo sapiens) (UniProt O00255) (assay: qHTS Assay for Inhibitors Targeting the Menin-MLL Interaction in MLL Related Leukemias: Competition With Texas Red Labeled MLL-derived Mutant Peptide). Settings: fluorescence polarization; series mostly up to 61.6 µM.
Potency is read from the fitted curve at half-maximal effect; tags tell the direction and shape of the fitted curve or compound fluorescence and quenching.

Sequence of UniProt O00255 (O00255 whole entry, looked up): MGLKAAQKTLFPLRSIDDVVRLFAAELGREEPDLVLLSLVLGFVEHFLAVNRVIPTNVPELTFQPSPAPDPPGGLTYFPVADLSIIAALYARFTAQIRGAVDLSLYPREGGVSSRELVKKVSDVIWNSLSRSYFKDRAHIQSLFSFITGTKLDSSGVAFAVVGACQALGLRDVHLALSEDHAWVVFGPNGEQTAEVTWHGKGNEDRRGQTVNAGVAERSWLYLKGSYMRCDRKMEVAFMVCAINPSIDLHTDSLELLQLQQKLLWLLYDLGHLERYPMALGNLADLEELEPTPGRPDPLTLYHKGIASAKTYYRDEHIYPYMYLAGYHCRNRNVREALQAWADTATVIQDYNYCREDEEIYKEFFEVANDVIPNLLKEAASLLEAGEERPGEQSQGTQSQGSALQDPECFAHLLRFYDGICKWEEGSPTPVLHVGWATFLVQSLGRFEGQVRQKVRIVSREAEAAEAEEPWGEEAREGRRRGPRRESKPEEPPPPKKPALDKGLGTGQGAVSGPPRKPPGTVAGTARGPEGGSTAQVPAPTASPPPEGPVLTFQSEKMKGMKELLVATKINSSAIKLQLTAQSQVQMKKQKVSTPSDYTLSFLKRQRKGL

Compound | Potency
Oc1ccc(N=Cc2ccc(OCc3ccccc3)cc2)cc1 | inconclusive: 17.8 µM [quencher, side channel, partial curve]
Cc1ccc(-c2csc3ncnc(N4CCc5ccccc5C4)c23)cc1 | inconclusive: 15.8 µM [fluorescent, side channel, partial curve]
CCCC(O)(c1ccc(Br)cc1)C(CN1CCOCC1)c1ccc(Cl)cc1 (stereo not given) | inconclusive: 10 µM [fluorescent, side channel, partial curve]
Cc1cc2c(cc(C(=O)OCC(=O)NCc3ccco3)n2C)s1 | inconclusive: 28.2 µM [fluorescent, side channel, single point]
CCOCC(O)COc1ccc(NC(=O)CC[S+](C)C)cc1 (stereo not given) | inconclusive: 35.5 µM [inhibitor, partial curve]
COc1ccccc1C(=O)Nc1c(C)n(C)n(-c2ccccc2)c1=O | inconclusive: 10 µM [quencher, side channel, partial curve]
O=C(Cn1cnc([N+](=O)[O-])n1)N/N=C/c1ccccc1O | inactive
NS(=O)(=O)c1ccc(NC(=O)COC(=O)COc2ccc3ccccc3c2)cc1 | inconclusive: 10 µM [quencher, side channel, partial curve]
O=S(=O)(Nc1cccc(-c2ccc(N3CCCCCC3)nn2)c1)c1ccc(C(F)(F)F)cc1 | inactive
CC(=O)Cc1nsc(NC(=O)c2ccc(COc3ccc(C)cc3)o2)n1 | inconclusive: 15.8 µM [quencher, side channel, partial curve]
Cc1ccccc1Nc1nnc(SCc2nc3ccccc3c(=O)[nH]2)s1 | inactive
CC(=O)c1ccc2c3c(cccc13)C(=O)N(CCc1ccccc1)C2=O | inconclusive: 20 µM [quencher, partial curve]
S=C(NCc1ccco1)N1CCN(c2nc(-c3ccccc3)cs2)CC1 | inconclusive: 12.6 µM [quencher, side channel, partial curve]
CCOC(=O)CSc1nnc(CNc2ccccc2Cl)n1-c1ccccc1 | inconclusive: 31.6 µM [fluorescent, side channel, single point]
Cc1cc(NCc2ccccc2Cl)n2nnnc2n1 | inconclusive: 31.6 µM [fluorescent, side channel, single point]
O=C(O)c1ccc(/C=C/c2nc3ccccc3c(=O)[nH]2)cc1 | inconclusive: 39.8 µM [inhibitor, partial curve]
c1ccc(-c2cc(-c3ccncc3)nc3ccc4ccccc4c23)cc1 | inactive
Nc1ccc(/C=C/C(=O)c2cccs2)cc1 | inconclusive: 14.1 µM [quencher, side channel, partial curve]
COc1ccc(NC(=O)c2ccc3ccccc3n2)cc1S(=O)(=O)Nc1ccccc1Cl | inconclusive: 28.2 µM [inhibitor, partial curve]
C=CC(COCc1ccccc1)N(Cc1ccccc1)S(=O)(=O)c1ccccc1Br (stereo not given) | inconclusive: 6.31 µM [quencher, single point]

Compound | Potency
O=C(c1cc2cc([N+](=O)[O-])ccc2oc1=O)n1cccn1 | inconclusive: 35.5 µM [quencher, side channel, single point]
CCOc1ccc(-c2cc(N)n(S(=O)(=O)c3ccc(OC)cc3)n2)cc1 | inconclusive: 20 µM [quencher, side channel, partial curve]
COc1ccc(-n2cc(C(=O)c3ccc4ccccc4c3O)cn2)cc1 | inconclusive: 12.6 µM [quencher, side channel, partial curve]
Cc1ccc(S(=O)(=O)NCCOc2nc(N(C)C)nc(N3CCOCC3)n2)cc1 | inconclusive: 3.55 µM [inhibitor, full curve, poor fit]
CCSc1nc(N)nc(-c2cccs2)c1C#N | inconclusive: 15.8 µM [quencher, side channel, single point]
CC(C)COc1nc2ccccc2nc1N1CCN(C)CC1 | inconclusive: 11.2 µM [inhibitor, partial curve]
COC(=O)c1ccccc1NC(=O)C1CCN(C(=O)N2CCOc3ccccc32)CC1 | inactive
C[n+]1ccccc1N1CCN(c2ccccc2Cl)CC1 | inactive
O=C(CSc1nc2ccccc2c(=O)n1Cc1ccccc1)Nc1ccc(Br)cc1C(=O)O | inconclusive: 14.1 µM [quencher, side channel, single point]
CCOC(=O)CSC1=C(C#N)C(c2ccccc2OCC)C(C#N)C(=O)N1 (stereo not given) | inconclusive: 20 µM [quencher, side channel, single point]
CCOC(=O)c1sc(NC(=O)c2sccc2C)cc1C | inconclusive: 11.2 µM [quencher, side channel, partial curve]
CCN(CC)c1ccc(N=Cc2c(C)[nH]c3ccccc23)cc1 | inconclusive: 22.4 µM [fluorescent, side channel, partial curve]
COc1ccc(NC(=O)C(NC(=O)Cc2cccs2)c2ccc(C)cc2)cc1 (stereo not given) | inconclusive: 35.5 µM [inhibitor, single point]
COc1ccccc1COCC(O)CN(Cc1ccco1)Cc1ccccc1O (stereo not given) | inconclusive: 17.8 µM [inhibitor, partial curve]
Cc1ccc(C2(c3noc(CN4CCC(c5ccncc5)CC4)n3)CCCC2)cc1 | inconclusive: 2 µM [fluorescent, side channel, full curve]
Cn1c2c(c(=O)[nH]c1=O)C(c1cccc(O)c1)C1=C(N2)c2ccccc2C1=O (stereo not given) | inconclusive: 31.6 µM [quencher, side channel, single point]
COc1ccc(-n2nc3ccc(N)cc3n2)cc1Cl | inconclusive: 14.1 µM [quencher, side channel, partial curve]
CC1(C)CC(n2c(NCCO)nc3c(c2=O)C2(CCCC2)Cc2ccccc2-3)CCO1 (stereo not given) | inactive
O=C(O)c1cc(-c2c[nH]c3ccccc23)nc2ccc3ccccc3c12 | inconclusive: 3.16 µM [quencher, side channel, full curve]
O=C(C1=C[C@@H](c2coc3ccccc3c2=O)C[C@@H](OCc2ccc(CO)cc2)O1)N1CCN(Cc2ccc3c(c2)OCO3)CC1 | inconclusive: 1.78 µM [fluorescent, side channel, full curve]

Compound | Potency
O=C(CCC(=O)c1ccc(Cl)cc1)OCC(=O)c1ccccc1 | inactive
Cc1c(C)n(CCCN(C)C)c2ncnc(NCc3ccccc3)c12 | inconclusive: 12.6 µM [inhibitor, partial curve]
O=C1NC(=Nc2cccc(Cl)c2)SC1Cc1cccc(Cl)c1Cl (stereo not given) | inconclusive: 35.5 µM [inhibitor, partial curve]
S=C(NCc1ccc(Cl)cc1)Nc1ccc(Cl)cc1Cl | inconclusive: 35.5 µM [inhibitor, single point]
CC(=O)Nc1ccc(C(=O)N/N=C/c2cc(Br)cc(Br)c2O)cc1 | inconclusive: 8.91 µM [quencher, side channel, full curve]
COc1ccc2[nH]cc(CCNC(=O)c3ccc4ccccc4n3)c2c1 | inconclusive: 25.1 µM [quencher, side channel, single point]
Cc1ccc(Cn2ncc3c(N4CCN(C5CCCC5)CC4)ncnc32)cc1 | inconclusive: 14.1 µM [fluorescent, side channel, partial curve]
Fc1cccc(/C=N/Nc2ccc(Cl)nn2)c1 | inconclusive: 10 µM [quencher, side channel, partial curve]
COc1ccccc1COCC(O)CN1CCCCC1CO (stereo not given) | inconclusive: 8.91 µM [quencher, side channel, single point]
CC(=O)Nc1ccc(NC(C)=O)s1 | inactive
O=C(O)c1ccc(S(=O)(=O)/N=C2\C=C(Nc3ccccc3F)C(=O)c3ccccc32)cc1 | inconclusive: 25.1 µM [quencher, side channel, partial curve]
COC(=O)CSc1nc(N)c(C#N)c(-c2ccco2)c1C#N | inactive
N#CC(C#N)=C1C=CC=CN1/C(=C\c1ccco1)C(=O)c1ccc(-c2ccccc2)cc1 | inconclusive: 28.2 µM [quencher, side channel, single point]
Cn1c(=O)[nH]c(=O)c2c1nc(N1CCCC1)n2CCCSc1nc2ccccc2o1 | inconclusive: 2.82 µM [fluorescent, side channel, partial curve]
CC(C)(C)OC(=O)N1CCC[C@H]1c1nnc(SC/C=C/c2ccccc2)o1 | inconclusive: 39.8 µM [fluorescent, side channel, single point]
Cc1cc(C(=O)Nn2c(-c3ccc(Br)cc3)nc3ccccc3c2=O)ccc1[N+](=O)[O-] | inconclusive: 22.4 µM [quencher, side channel, partial curve]
Cc1cc(C)c(OCCCCN2CCC(C)CC2)c(Br)c1 | inconclusive: 8.91 µM [fluorescent, side channel, partial curve]
Cc1ccccc1CN(C)CC(=O)NC(C)CCc1ccccc1 (stereo not given) | inconclusive: 12.6 µM [fluorescent, side channel, partial curve]
CC(=O)c1cccc(NC(=O)CC2S/C(=N/N=C/c3ccccc3)NC2=O)c1 (stereo not given) | inconclusive: 39.8 µM [inhibitor, single point]
CCCOc1ccc(N2C(=O)CC(N3CCC(c4nc5ccccc5o4)CC3)C2=O)cc1 (stereo not given) | inconclusive: 28.2 µM [fluorescent, side channel, single point]
